The whole screen tested about 110,000 compounds, of which about 230 (0.21%) showed an effect of 50% or more. Some of the results follow.
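Further: 30 min substrate incubation versus DMSO and 10 µM JCP410 controls.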

The target in this assay is DPAP1 (Plasmodium falciparum, UniProt Q8IIJ9). Description: primary screen, percent inhibition; read by cleavage of a fluorogenic dipeptide substrate; higher = more effect of the substance. Set-up: species or system P. falciparum D10 trophozoite lysates; single well.
DPAP1, sequence (Q8IIJ9 whole entry, looked up): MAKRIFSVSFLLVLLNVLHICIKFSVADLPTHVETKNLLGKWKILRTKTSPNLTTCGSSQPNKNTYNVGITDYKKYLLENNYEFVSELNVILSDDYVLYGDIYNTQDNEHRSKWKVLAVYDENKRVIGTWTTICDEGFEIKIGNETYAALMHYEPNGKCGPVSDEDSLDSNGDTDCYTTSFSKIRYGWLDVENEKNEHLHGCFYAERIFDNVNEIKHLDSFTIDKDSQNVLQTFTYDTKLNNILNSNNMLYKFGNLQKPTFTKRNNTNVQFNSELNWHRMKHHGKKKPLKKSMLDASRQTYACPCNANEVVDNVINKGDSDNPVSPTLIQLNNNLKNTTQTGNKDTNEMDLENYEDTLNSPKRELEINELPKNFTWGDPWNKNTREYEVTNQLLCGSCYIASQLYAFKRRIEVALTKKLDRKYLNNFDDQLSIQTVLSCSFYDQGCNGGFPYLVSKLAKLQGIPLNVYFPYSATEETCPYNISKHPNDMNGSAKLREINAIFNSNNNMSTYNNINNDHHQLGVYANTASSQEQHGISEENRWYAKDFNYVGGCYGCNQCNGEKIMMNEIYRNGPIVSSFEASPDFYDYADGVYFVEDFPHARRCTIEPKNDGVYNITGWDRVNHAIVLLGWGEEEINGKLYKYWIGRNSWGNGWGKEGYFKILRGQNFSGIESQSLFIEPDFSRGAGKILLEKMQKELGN
`CCC(Sc1nc2ccsc2c(=O)n1Cc1ccccn1)C(=O)NCc1ccc(C)cc1` (centres unmarked): the “% Inhibition @ 10 uM” value stood at 2.07%.

For the compound `CCOc1ccc2nc(Nc3nc(C)c(CC)c(O)n3)nc(C)c2c1`, the “% Inhibition @ 10 uM” value was -1.17%.

As for `O=C1NC(=O)/C(=C\c2cccs2)S1`, the “% Inhibition @ 10 uM” value is 4.86%.

On to `c1ccc(-c2onc3ccc4c5ccccc5oc4c23)cc1`, for which the “% Inhibition @ 10 uM” value was -0.693%.

`CCN1CCN(c2cnn(C34CC5CC(CC(C5)C3C(=O)O)C4)c(=O)c2Cl)CC1` (centres unmarked): the “% Inhibition @ 10 uM” value was found to be 1.15%.

On to `COc1ccccc1NC(=O)C1=C(C)Nc2nc(-c3ccccc3Cl)nn2C1c1cccnc1` (centres unmarked), for which the “% Inhibition @ 10 uM” value was determined as 1.28%.

As for `CSc1nc(-c2ccccc2)ccc1C#N`, the “% Inhibition @ 10 uM” value is -6.18%.

Consider `COc1ccc(C(=O)OCCN2CCOCC2)cc1`, for which the “% Inhibition @ 10 uM” value is recorded as -4.74%.

As for `Cc1ccc(S(=O)(=O)Nc2ccccc2/N=C/C=C(\O)c2ccc3c(c2)OCO3)cc1`, the “% Inhibition @ 10 uM” value was -0.864%.

With `COc1ccc(C(CC(=O)c2ccccc2)Sc2ccccc2N)cc1` (centres unmarked), the “% Inhibition @ 10 uM” value is -0.0267%.

In the case of `Cc1nc(CSc2nnc(-c3ccco3)n2-c2ccccc2)cs1`, the “% Inhibition @ 10 uM” value stood at 2.77%.

For the compound `CC1=CC2=NC(=O)/C(=C\c3c(C)[nH]c4ccc(C)cc34)C(=N)N2O1`, the “% Inhibition @ 10 uM” value is -5.1%.

Regarding `CC(=O)Nc1ccc(NC(=O)C2CC2(c2ccccc2)c2ccccc2)cc1` (centres unmarked), the “% Inhibition @ 10 uM” value is -2.15%.

For the compound `CCOC(=O)N1CCC(N2CCCC(CO)C2)CC1` (centres unmarked), the “% Inhibition @ 10 uM” value is -3.82%.

Take `Cc1cccc(-c2nnc(C3CCN(S(C)(=O)=O)CC3)o2)c1`: the “% Inhibition @ 10 uM” value turned out to be 2.34%.

For `O=C(CSc1nc2ccccc2[nH]1)Nc1ccc2nc(SCC(=O)N3CCCC3)sc2c1`, the “% Inhibition @ 10 uM” value was 1.35%.

Regarding `Cc1cc(C)cc(OCCNS(=O)(=O)c2cccs2)c1`, the “% Inhibition @ 10 uM” value is listed as 5.97%.

Consider `Clc1ccccc1CN1CCN(Cc2cccnc2)CC1`, for which the “% Inhibition @ 10 uM” value is given as 3.12%.

With `CCCN1CCC(Nc2ccc3[nH]ncc3c2)CC1`, the “% Inhibition @ 10 uM” value came to 1.57%.

`Cc1cccc(NC(=O)c2cccc(Br)c2)c1C`: the “% Inhibition @ 10 uM” value worked out at 3.53%.

`COc1ccc(Cl)cc1NC(=O)CN(Cc1ccc(F)cc1)S(=O)(=O)c1ccccc1`: the “% Inhibition @ 10 uM” value is reported as 2.27%.

Regarding `CCC(C(=O)N1CCN(C)CC1)n1nc(C)c2sc3ccccc3c2c1=O` (centres unmarked), the “% Inhibition @ 10 uM” value is -0.856%.

On to `Cc1nc(NC(=O)C2C3C=CC(C3)C2C(=O)O)sc1C` (centres unmarked), for which the “% Inhibition @ 10 uM” value stood at 47%.

Regarding `COc1cc(/C=C2\SC(=O)N(CC(=O)Nc3ccc(C)cc3)C2=O)cc(Cl)c1O`, the “% Inhibition @ 10 uM” value is -5.4%.

Turning to `NC(=O)c1cc(S(=O)(=O)N2CCN(C3CCCCC3)CC2)cs1`, the “% Inhibition @ 10 uM” value is recorded as 7.08%.

On to `CC1(C)CC(=O)c2c(nc(S)c(C#N)c2-c2ccc(Cl)cc2)C1`, for which the “% Inhibition @ 10 uM” value is on record as 22.4%.

Regarding `Cc1ccn2cc(-c3ccc4c(c3)OCO4)cc2c1`, the “% Inhibition @ 10 uM” value stood at 0.331%.

Turning to `CC1=C(C#N)C(=O)NC(=O)/C1=C\c1ccc(-c2ccc(C)c(Cl)c2)o1`, the “% Inhibition @ 10 uM” value is -4.93%.

For `CCCC[C@@H](NC(=O)CC#N)C(=O)Nc1ccccc1`, the “% Inhibition @ 10 uM” value amounted to 1.35%.

Regarding `COc1cccc(C2=CC(c3ccc(OC(F)F)cc3)n3ncnc3N2)c1` (centres unmarked), the “% Inhibition @ 10 uM” value stood at 6.36%.

Turning to `CCN1C(=O)[C@H]2Cc3c([nH]c4ccccc34)[C@@H](c3cc(OC)c(OC)c(OC)c3)N2C1=S`, the “% Inhibition @ 10 uM” value is -1.99%.

For the compound `CCOC(=O)c1c(C)n(CCOc2ccc(C)cc2)c2ccc(O)cc12`, the “% Inhibition @ 10 uM” value is reported as 1.63%.

Regarding `CCOC(=O)C1=C(CN2CC(C)CC(C)C2)NC(=O)NC1c1cccc(OC)c1OC` (centres unmarked), the “% Inhibition @ 10 uM” value is recorded as 0.44%.

Consider `C=CCNC(=O)CN1N=C(c2ccccc2)CCC1=O`, for which the “% Inhibition @ 10 uM” value is on record as -1.21%.

As to `O=C(Cn1ncc2c1-c1ccccc1OC2)Nc1nc2ccccc2s1`, the “% Inhibition @ 10 uM” value was determined as 3.32%.

For the compound `OC(COCc1ccc(Cl)cc1)CN1CCN(c2ccccc2F)CC1` (centres unmarked), the “% Inhibition @ 10 uM” value is -0.478%.

Consider `N#CC1=C(N)Oc2c(ccc3ccccc23)C1c1ccsc1` (centres unmarked), for which the “% Inhibition @ 10 uM” value is -0.833%.

Turning to `O=C(O)c1ccccc1C(=O)NCc1ccc2[nH]c3c(c2c1)CCCC3`, the “% Inhibition @ 10 uM” value is -5.58%.

As for `CCOC(=O)c1oc2ccc(S(=O)(=O)N3CCC(c4c(C)[nH]c5ccccc45)CC3)cc2c1C`, the “% Inhibition @ 10 uM” value amounted to 3.76%.

Consider `Cc1ccccc1C(=O)N1CCCCC1CO` (centres unmarked), for which the “% Inhibition @ 10 uM” value worked out at 1.83%.

Regarding `Cc1cccc2c(O)c(NC(=O)NCC3CC3)cnc12`, the “% Inhibition @ 10 uM” value is reported as -1.31%.

Regarding `COc1cc(S(=O)(=O)NC2CC(C)(C)NC(C)(C)C2)c(OC)cc1Cl`, the “% Inhibition @ 10 uM” value is recorded as -3.43%.

For `CCOc1ccc(-c2c(C)nn3c(-c4ccccc4)c(C(=O)NCc4ccco4)cnc23)cc1OCC`, the “% Inhibition @ 10 uM” value was -0.12%.

Consider `O=C(NCc1cccnc1)C1CCC(CNS(=O)(=O)c2ccccc2)CC1` (centres unmarked), for which the “% Inhibition @ 10 uM” value is 2.35%.

`O=[N+]([O-])c1cc2c(cc1CN1CCN(c3ccccc3F)CC1)OCO2`: the “% Inhibition @ 10 uM” value is listed as -1.07%.

For the compound `CN1CCCc2c1nc1ccccc1c2N`, the “% Inhibition @ 10 uM” value was -6.09%.

With `O=C(NC1CCCCC1)C(Cc1ccc([N+](=O)[O-])cc1)N1C(=O)c2ccccc2C1=O` (centres unmarked), the “% Inhibition @ 10 uM” value is listed as -0.736%.

`Cc1ccc(/C=C(\NC(=O)c2ccccc2)C(=O)NCc2ccc(Cl)cc2)o1`: the “% Inhibition @ 10 uM” value is on record as 5.58%.

In the case of `Cn1c(=O)c2cc(C#N)c(N)nc2n(C)c1=O`, the “% Inhibition @ 10 uM” value is -1.37%.

For `COc1ccc(CCC2=NCCn3cccc32)cc1`, the “% Inhibition @ 10 uM” value is given as -5.9%.

(Values after article PMC6919601, “Identification of Plasmodium dipeptidyl aminopeptidase allosteric inhibitors by high throughput screening” (PLoS ONE, 2019).)
